Data published in PubChem BioAssay AID485281 (National Center for Advancing Translational Sciences (NCATS), 2010).
Several values for one entry are separate records, joined by “and”; a condition that tells them apart may be missing. Equal entries are not always repeated. Out of some 350,000 compounds screened, about 260 (0.074%) were called active. This list was built around the results that the source calls inconclusive (neither active nor inactive); the mix of calls is not that of the screen. The call rests on the fitted dose curve; in most records, active means well fitted inhibition curve with a large enough effect; inconclusive means small, poorly fitted or top-dose-only effect; inactive means no such curve, though single readings can be large or run the other way. A potency beside an inconclusive call is a rough fit, not a confirmed value.

What follows are molecules tested against Ferritin light chain (Equus caballus) (UniProt P02791) (assay: qHTS Assay for Identification of Novel General Anesthetics). Conditions: apoferritin/1-aminoanthracene competitive binding, fluorescence; activity change, negative = displacement: at 77.5 µM (top of the series).
Outline: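 Apoferritin-based anesthetic binding model; compound displacement of fluorescent 1-AMA measured as endpoint fluorescence after 10 minutes at room temperature, scaled to free-ligand and complex controls.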
Further: nearly all actives have a fitted effect of over 20% in size.
On the % scale 0 is the no-effect control and ±100 the full control effect; potency means the concentration at half of the fitted maximal effect; tags describe the fitted curve by direction and shape.

Sequence of UniProt P02791 (P02791 whole entry, looked up): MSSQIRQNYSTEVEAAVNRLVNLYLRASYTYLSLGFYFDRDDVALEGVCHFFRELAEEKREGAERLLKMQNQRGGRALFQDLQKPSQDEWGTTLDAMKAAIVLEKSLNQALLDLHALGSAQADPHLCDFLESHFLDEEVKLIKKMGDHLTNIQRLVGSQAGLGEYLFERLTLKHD

Potency, inconclusive:
CN1CCc2c(sc(NC(=O)c3ccc(S(=O)(=O)N4CCCC4)cc3)c2C(N)=O)C1 35.5 µM [inhibitor, single point]
[O-]/C(=C(\C(=S)Nc1ccc(SC(F)F)cc1)[n+]1cccc(CO)c1)c1ccc(Cl)s1 28.2 µM [inhibitor, partial curve]
Cc1cc(C(=O)OCC(=O)c2ccc(Br)s2)no1 11.2 µM [inhibitor, partial curve]
COc1ccc(CCN2C(=O)CC(Nc3ccc(N4CCOCC4)cc3)C2=O)cc1OC (stereo unspecified) 31.6 µM [inhibitor, partial curve]
CNC(=O)c1ccc(-c2ccc(F)cc2)s1 31.6 µM [inhibitor, single point]
O=S(=O)(NC1CCCC1)c1ccc(S(=O)(=O)NC2CCCC2)cc1 11.2 µM [inhibitor, full curve, poor fit]
COc1cccc(CN2CCCC(C(=O)c3ccc4c(c3)OCO4)C2)c1O (stereo unspecified) 25.1 µM [inhibitor, partial curve]
CC(=O)c1c(C)oc2ccc(N(C(=O)c3ccncc3)S(=O)(=O)c3ccc(F)cc3C)cc12 50.1 µM [inhibitor, single point]
Clc1ccccc1CN(Cc1ccccc1)c1ncnc2nc[nH]c12 50.1 µM [inhibitor, single point]
COc1ccc(NS(=O)(=O)c2ccc3c(c2)n(C)c(=O)c(=O)n3C)cc1Cl 50.1 µM [inhibitor, single point]
Cc1ccc(CNC(=O)c2cnn(-c3ccc(F)cc3F)c2C2CCN(C(=O)OC(C)(C)C)CC2)cc1 3.98 µM [inhibitor, full curve]
CC1CCCC(NC(=O)CNC(=S)N(Cc2ccccc2)Cc2cccs2)C1C (stereo unspecified) 7.08 µM [inhibitor, single point]
CCc1ccccc1NS(=O)(=O)c1ccc2[nH]cc(C(=O)N(CC(C)C)CC(C)C)c(=O)c2c1 50.1 µM [inhibitor, single point]
O=C(CCSCc1ccccc1)Nc1ccc2c(c1)OCCO2 22.4 µM [inhibitor, partial curve]
CO/N=C(/CS(=O)c1ccc(Br)cc1)c1ccc(OC)cc1 (stereo unspecified) 35.5 µM [inhibitor, partial curve]
CCOC(=O)c1cnc(Nc2nc3ccccc3o2)nc1CN1CCN(C)CC1 15.8 µM [inhibitor, partial curve]
O=[N+]([O-])c1c(NCCO)cc(N2CCCCCC2)c2nonc12 7.08 µM [inhibitor, partial curve]
CCOC(=O)Cc1csc(NC(=O)CSc2nnnn2-c2ccc(C)c(C)c2)n1 11.2 µM [inhibitor, partial curve, poor fit]
O=C(COc1ccc(/C=N/NC(=O)C(=O)N2CCCCCC2)cc1)Nc1ccccc1Cl 50.1 µM [inhibitor, single point]
COc1ccc(OC)c(C(=O)CC2(O)C(=O)N(Cc3ccccc3C)c3ccccc32)c1 (stereo unspecified) 8.91 µM [inhibitor, partial curve]
Cc1cc(OCC(=O)N(C(C)C)C(C)C)cc(C)c1Br 31.6 µM [inhibitor, single point]
CC1(C)C(=O)C=C[C@@]2(C)C1C=C[C@@]1(C)C2CC[C@@]2(C)C(c3ccoc3)OC(=O)C3OC312 (stereo partly specified) 17.8 µM [inhibitor, partial curve]
CSc1nc2nccc(/C=C\c3ccccc3)n2n1 50.1 µM [inhibitor, single point]
Cc1cccc(N2CCN(C(=O)CS(=O)(=O)c3cccc4nsnc34)CC2)c1C 4.47 µM [inhibitor, full curve]
O=C1c2ccccc2CCC1C(O)c1ccccn1 (stereo unspecified) 28.2 µM [inhibitor, partial curve]
CN(C)/C=C(\C#N)C(=O)c1cccc(Oc2ccc(Br)cc2)c1 39.8 µM [inhibitor, partial curve]
C=CCn1cccc(/C=C/C(=O)c2ccc(C(C)(C)C)cc2)c1=S 50.1 µM [inhibitor, single point]
CCn1c(SCC(=O)NNC(=S)Nc2ccc(C)cc2)nnc1-c1ccc(Cl)cc1 31.6 µM [inhibitor, single point]
Cc1cc(C)n(C(=O)Cn2nc(C)c(Br)c2C)n1 39.8 µM [inhibitor, partial curve]
CC(C)OC(=O)CSc1nc(Cc2ccccc2)nc2ccccc12 31.6 µM [inhibitor, single point]
COc1ccc(/C(C)=N/NC(=O)CNC(=O)c2cccs2)cc1OC 28.2 µM [inhibitor, single point]
CC(=O)N1N=C(c2cccc([N+](=O)[O-])c2)OC1c1ccccc1Cl (stereo unspecified) 22.4 µM [inhibitor, partial curve]
Cc1ccc(NC(=S)Nc2ccc(Cl)c(Cl)c2)c(OC(F)F)c1 28.2 µM [inhibitor, single point]
CC(C)c1ccc(NC(=O)CCCN2C(=S)NC(C)(C)CC2C)cc1 (stereo unspecified) 35.5 µM [inhibitor, partial curve]
Fc1ccc(CSc2nnc(-c3cccs3)o2)cc1 31.6 µM [inhibitor, partial curve]
C/C(Cl)=C\Cn1c(O)c(N=NC(N)=S)c2ccccc21 39.8 µM [inhibitor, partial curve]
O=C(CN1CCCCC1)Nc1ccccc1-c1ccccc1 31.6 µM [inhibitor, partial curve]
O=C(Nc1ccc(N2CCCCC2)cc1)c1ccccn1 35.5 µM [inhibitor, single point]
CCC1CCCCN1C(=O)Nc1cccc(NC(=O)N2CCCCC2CC)c1 (stereo unspecified) 14.1 µM [inhibitor, partial curve]
O=C(NC(=S)Nc1cccc(Cl)c1Cl)C1CC1 8.91 µM [inhibitor, partial curve]
COc1ccc(OCC(=O)NC(=S)NNC(=O)COc2ccc(Br)cc2Cl)cc1 35.5 µM [inhibitor, single point]
C(=N\NC1=Nc2cccc3cccc1c23)/c1ccccn1 31.6 µM [inhibitor, partial curve]
Cc1ccc(-c2nnc(CCC(=O)NCC3C4CC5CC(C4)CC3C5)o2)s1 (stereo unspecified) 14.1 µM [inhibitor, partial curve]
Cc1ccccc1-c1cc(-c2ccccc2O)on1 50.1 µM [inhibitor, partial curve, poor fit]
COc1ccc(N=Cc2c[nH][nH]c2=O)cc1 50.1 µM [inhibitor, single point]
O=C(CCC(=O)Nc1ccccc1)N/N=C/c1ccccc1F 22.4 µM [inhibitor, partial curve]
COC1CCCN(C(=O)c2ccc3nc(Cc4cccc(Cl)c4)oc3c2)C1 (stereo unspecified) 15.8 µM [inhibitor, partial curve]
CCCN(CCC)S(=O)(=O)c1ccc(NS(=O)(=O)c2ccc(F)cc2)cc1 39.8 µM [inhibitor, partial curve]
O=C(CN1C(=O)C2(OCCO2)c2ccccc21)c1ccc(Br)cc1 1.41 µM [inhibitor, full curve, poor fit]
Cc1ccc(NS(=O)(=O)c2ccc(NC(=O)C3CC3)cc2)c(C)c1 25.1 µM [inhibitor, partial curve]
CC/C(=C\c1oc2cc3ccccc3cc2[n+]1CC)Nc1ccccc1 31.6 µM [inhibitor, partial curve]

Potency, inactive:
Cc1ccc(S(=O)(=O)C(C#N)c2nc3ccccc3nc2N2CC(C)OC(C)C2)cc1C (stereo unspecified)
CCOc1ccc(/C=N/NC(=O)c2nnn(-c3nonc3N)c2-c2cccs2)cc1
COc1cc(C)ccc1OCCCOc1ccccc1Cl
Cc1csc(NC(=O)c2cc(C)nc3ccccc23)n1
CCOc1ccccc1CNC(=O)CCc1c(C)nn(-c2ccc(N3CCCC3)nn2)c1C
CC(CC(=O)c1cccs1)CC(=O)c1cccs1
C/C(CC(=O)Nc1cccc2c1CCCC2)=N\NC(=O)c1ccccc1N
O=C(Nc1ccnn1C1CCN(CC2CC=CCC2)CC1)c1ccccc1 (stereo unspecified)
C=CCC(C)(NCc1ccccc1)c1ccc(C)cc1 (stereo unspecified)
C[C@H](NC(=O)c1ccccc1)C(=O)N1CCN(c2ccccc2)CC1
Cc1cccc(C)c1OCCOC(=O)c1n[nH]c2ccccc12
O=C(CCn1c(=O)c2cccn2c2cccnc21)N1CCN(c2cccc(C(F)(F)F)c2)CC1
NC(=O)CC(c1ccccc1)c1ccc2c(c1)OCO2 (stereo unspecified)

Potency, active:
COc1ccc(OCc2nnc3n2N=C(c2ccc(OC)cc2)CS3)cc1 8.91 µM

Activity change, negative = displacement, inactive:
Cc1ccc(S(=O)(=O)N[C@H]2COC(=O)[C@@H](Cc3ccccc3)NC(=O)[C@@H](C)COC(=O)C/C=C\[C@@H]2C)cc1 2.38% [at 15.3 µM] and -11.9% [at 15.3 µM]
